The full ranking holds about 33,000 sequences; the median of “E-score (-0.5 to 0.5)” is about -0.054, and the highest 2% start at about 0.39. Some of the results follow.
What follows are sequences tested against Ylr278c (UniProt Q05854) (assay: PBM E-score (8-mer binding enrichment) (E-score (-0.5 to 0.5)); higher = stronger / more preferred TF binding; most listed sequences are background and not binding sites). Settings: protein concentration: 200 nM; construct: GST-DNA-binding domain.
In short: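 The E-score, a modified Wilcoxon-Mann-Whitney statistic, was computed by the Universal PBM Analysis Suite for every ungapped eight-base word pooled with its reverse complement. Scans behind it were normalised with masliner after bound GST-tagged yeast transcription factors were detected with fluorescent anti-GST. The proteins, at about 100-200 nM, had been applied to universal all-10-mer Agilent arrays made double-stranded by primer extension.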

Row | Sequence | PBM E-score
1 | GCCTAGGA | -0.153
2 | CAATTGAG | 0.0878
3 | CTGCTTGC | -0.0607
4 | ACACCCCG | 0.241
5 | CAGAATGA | -0.164
6 | GAAATGAA | 0.166
7 | AACCATTG | -0.211
8 | ATCCTTGC | -0.0916
9 | CCAAAGCA | -0.107
10 | AATTACCC | 0.141
11 | CCAGAACC | -0.164
12 | CCCTAGCA | -0.13
13 | GCTCTGCC | -0.124
14 | CGACGAAG | 0.116
15 | CTATAGAC | -0.167
16 | GTGTAGAA | -0.226
17 | AGCTTGGG | -0.0608
18 | GGTTTGCA | 0.125
19 | ACTACCTA | -0.00777
20 | CATTGAGA | -0.119
21 | GGATTCCC | 0.185
22 | GGGTTAAC | 0.176
23 | AGCAAACA | 0.00793
24 | CAGCGTCA | -0.128
25 | CCAGGTCA | -0.253

Row | Sequence | PBM E-score
26 | TGGCTCAA | -0.253
27 | AATCTGAT | 0.0142
28 | CCTCTTAC | -0.169
29 | CGTTCAAA | 0.0453
30 | CATTGCGA | -0.0217
31 | AGTTCCTG | -0.0874
32 | GTGGTGAA | -0.0967
33 | TGCAACCA | -0.255
34 | CCTGGACA | -0.154
35 | CCTAGTAC | -0.172
36 | CTGCACCA | -0.159
37 | CCAGGCAA | -0.071
38 | CTTTTGTA | 0.00311
39 | AGCGAGAC | -0.119
40 | CTCATGCC | -0.176
41 | ACGACGGG | 0.014
42 | CAGTAACC | 0.00497
43 | GGTTATCA | -0.127
44 | CTTCTGGC | -0.299
45 | AACTTTGT | -0.0105
46 | ATTCCCCA | -0.0758
47 | CACGGGCA | 0.0224
48 | ATCACTTC | -0.0556
49 | CCCTTAAC | -0.258
50 | AGACCCTC | -0.0526

Row | Sequence | PBM E-score
51 | CGTGGAAG | 0.0308
52 | CGCCTTAA | -0.119
53 | GGGGGACA | -0.203
54 | CATTCACG | 0.0541
55 | GGTGTGGA | -0.0575
56 | GGACCTAA | 0.226
57 | CGCCGTGA | 0.172
58 | CACGGGGC | 0.152
59 | AGAGGTCA | -0.0798
60 | ATATAATA | -0.0463
61 | GGGTAACA | -0.155
62 | CACGCGTC | 0.143
63 | CGCCATGC | 0.0273
64 | AAGGGGGG | -0.394
65 | ACTAGGGC | -0.239
66 | CGCCGCCG | 0.362
67 | ATCCAAAG | -0.177
68 | CACAGCGC | 0.0802
69 | GTCCTAAC | -0.0824
70 | CAATCGTA | -0.163
71 | CGGTCTAG | 0.0736
72 | GGAGGGCA | 0.00619
73 | AAAATACG | -0.0445
74 | CAATTTCA | -0.137
75 | ATGGATGC | -0.0459

Row | Sequence | PBM E-score
76 | CAGTACTG | -0.261
77 | ATTAACCG | 0.322
78 | GACTCTAC | -0.144
79 | TACTGGAA | -0.0153
80 | AAGTTAGG | -0.0863
81 | AGTGTCAG | -0.219
82 | ACTCCATC | 0.275
83 | ACTCGTCA | -0.208
84 | CTTAGGGA | -0.248
85 | ACGTGCAT | -0.261
86 | CTAGCACA | -0.191
87 | TTCGACAA | -0.188
88 | ACTTCCCC | 0.00708
89 | CCCCAACG | -0.00611
90 | CGAGTAAC | -0.04
91 | GGACCCTA | -0.0466
92 | GCTGCGGA | 0.314
93 | GTGTATCA | -0.039
94 | CAGCACAC | -0.238
95 | ACAACAAG | -0.207
96 | ACCAGTTA | -0.149
97 | CGCTGTCA | -0.118
98 | AATCCTCG | -0.144
99 | AGTGTCTC | -0.076
100 | CCGTTTAA | 0.18

Row | Sequence | PBM E-score
101 | GATGTTGC | 0.162
102 | ACAGACTC | -0.109
103 | GCTGCCAA | -0.105
104 | CACCCACG | 0.0222
105 | ATATGGCA | -0.242
106 | CACACAGG | -0.192
107 | GTGTGTGA | -0.0812
108 | GAATGGTA | -0.221
109 | ATGGCAAC | -0.0198
110 | AAATCGTA | -0.133
111 | GTTCTTCA | -0.192
112 | CACTGCAC | -0.211
113 | AGTTCTTG | -0.115
114 | CGGAATAA | 0.433
115 | ATGGTAAA | -0.0675
116 | AAGATCGT | -0.168
117 | CTTTTTAC | 0.00387
118 | CAGGGTCG | 0.0987
119 | CTCTTTTA | -0.327
120 | AAAGATCC | 0.0866
121 | AGGTTCCG | 0.289
122 | TGCACAAA | -0.266
123 | AGCCATAC | -0.407
124 | CCCGGATC | 0.403
125 | CAATCTGA | -0.0967

Row | Sequence | PBM E-score
126 | CAGCTCAC | -0.16
127 | CTTTGTCC | 0.197
128 | ACCAACAG | -0.174
129 | ACCCCGCC | 0.375
130 | CCCGCCCA | 0.243
131 | AACCTGGT | 0.0412
132 | ACTAGCCT | -0.0654
133 | ACCAGGAA | -0.0449
134 | ACACCCCT | -0.227
135 | AGTGGCGC | 0.024
136 | GCGTACCA | -0.188
137 | GGCAGACC | -0.0495
138 | AGGGTGTG | -0.0826
139 | GAGTCGGC | 0.196
140 | CGTCAGAA | -0.25
141 | CTCTTTCA | -0.101
142 | ACCTTCGT | -0.119
143 | AAATGCTT | 0.0244
144 | AATCCGCC | 0.319
145 | CCGATCGG | 0.43
146 | CTCCATGC | -0.0754
147 | ACGTTAGT | -0.171
148 | CCCCTTCA | -0.187
149 | TCAGCACA | -0.175
150 | ACGGATGA | 0.0479

Row | Sequence | PBM E-score
151 | ATCCAGAT | -0.146
152 | GTTCGGAA | 0.403
153 | GGCTAGGA | -0.334
154 | CAGATCCG | 0.368
155 | AAATAGCC | -0.00231
156 | CACAACTG | -0.273
157 | GGCAGCAC | -0.15
158 | CTTGGAAC | -0.146
159 | GGTCCGGA | 0.446
160 | CGATGTTC | 0.0923
161 | CTATACAA | -0.155
162 | TAATAATA | -0.0581
163 | ATTGGTGC | 0.162
164 | GCGGCGCA | 0.204
165 | GAACAAGA | 0.0112
166 | GTTCTGAA | -0.223
167 | CGGAGCGC | 0.391
168 | TAGGCTCA | -0.191
169 | CAGCACCA | -0.214
170 | CGGTCTAA | -0.0115
171 | CGGGCGTA | 0.178
172 | TCTTGACA | -0.154

From the supplement of paper PMC3334620
